Experimental findings from PMC7819943, “Rice protein-binding microarrays: a tool to detect cis-acting elements near promoter regions in rice” are described below.

The list shows a part of the results.

The target in this assay is T1, OsWOX13 (Oryza sativa, UniProt Q5QMM3 1-267).
T1 sequence: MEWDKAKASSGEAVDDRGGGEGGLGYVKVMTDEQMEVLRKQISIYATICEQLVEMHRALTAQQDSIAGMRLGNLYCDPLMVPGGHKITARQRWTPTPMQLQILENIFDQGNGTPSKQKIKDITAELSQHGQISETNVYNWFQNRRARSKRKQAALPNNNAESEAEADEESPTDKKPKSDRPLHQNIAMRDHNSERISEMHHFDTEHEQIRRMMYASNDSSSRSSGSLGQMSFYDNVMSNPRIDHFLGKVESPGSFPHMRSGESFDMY
Briefly: protein-binding microarray (RPBM); PBS, 2% BSA, 51.3 ng/ul salmon testes DNA, 50 uM zinc acetate, 200 nM TF, 25 C, 1 h; high values mean tight binding. Conditions: protein: recombinant; tags: N-terminal polyhistidine and DsRed monomer fusion (pET32a); label: CyDye5-dUTP incorporated in the synthesized complementary strand; 3' TTTTT single-stranded linker to array surface; dsDNA, one strand shown. An outline of the steps:
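The binding signal is fluorescence intensity per feature, in arbitrary units, read on an Axon 4000B scanner. Polyhistidine- and DsRed-tagged transcription factors (N-terminal fusions) from E. coli BL21-CodonPlus were purified on Ni–NTA and applied at 200 nM for 1 h at 25 °C to a double-stranded, BSA-blocked custom Agilent array in buffer with 50 µM zinc acetate.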
As to “AGGGGTAATTTATGTAAATATTTTGGATGGTATAATATTTCGGAGTCACCTAGTGCAG”, the binding signal is 14600 fluorescence intensity (a.u.). “AAAATTGACATCACTTCCAGATTGGATGTTTATAGAAATGCGGAGTCACCTAGTGCAG”: the binding signal was 5500 fluorescence intensity (a.u.). To “GGAAATTTGGGCTAAATTTCTGGGCGTGACAGACGATGGCCGGAGTCACCTAGTGCAG” belongs 13000 fluorescence intensity (a.u.); to “TATCTAATAATTGGATGGTTACAACCAAATACTTCTACATCGGAGTCACCTAGTGCAG”, 25800 fluorescence intensity (a.u.); to “ACTATTATTGTTTGTCAAGTTCGTTTATTAATCCGATGTCCGGAGTCACCTAGTGCAG”, 3950 fluorescence intensity (a.u.). Consider “TTGTGATTATTTCCTACCATTATACGAAAGTATAATAGTACGGAGTCACCTAGTGCAG”, for which the binding signal was 13000 fluorescence intensity (a.u.).

Take “AATCAGTTTTAAATTTAAGATTACAAATTTAAATTTTGGTCGGAGTCACCTAGTGCAG”: the binding signal was 16200 fluorescence intensity (a.u.). The figure for “GACAGCTAATTTAGTCAGTAAGAACCAATTGCAAATCCTGCGGAGTCACCTAGTGCAG” is 6060 fluorescence intensity (a.u.); for “TTCGGATAATTACTCAGTAGCATACCCTTCGAATGAATCACGGAGTCACCTAGTGCAG” it is 4900 fluorescence intensity (a.u.); for “CCATAAATTAATCACAAGGCACCAGCCCCACCCTCTCTCCCGGAGTCACCTAGTGCAG” it is 13300 fluorescence intensity (a.u.). Take “CAGTTTGACAGTCACAAGAATAATTGGCCATCGCATCTCGCGGAGTCACCTAGTGCAG”: the binding signal was 14900 fluorescence intensity (a.u.). The figure for “GGAGTATATAATTAACATAAATCTGCATGGACATATAGTTCGGAGTCACCTAGTGCAG” is 7120 fluorescence intensity (a.u.); for “AGTTTGTTAAACCGTGGATTGACTCATGACTTATCTACTACGGAGTCACCTAGTGCAG” it is 9020 fluorescence intensity (a.u.); for “ACAAATTACAGATTCCGCTTGTAAACTGCAAGACGAATTTCGGAGTCACCTAGTGCAG” it is 8660 fluorescence intensity (a.u.). In the case of “GTGTATCATCTAGGTCCTAAATTGACACATCCCCTCTAGGCGGAGTCACCTAGTGCAG”, the binding signal is 10100 fluorescence intensity (a.u.).

Take “TATATATATATATATATATATATATATAAAACAATGTAAACGGAGTCACCTAGTGCAG”: the binding signal is 16800 fluorescence intensity (a.u.). Turning to “AGAAATTAAATTTAATCAGCACAGATCAACACACGTAAGTCGGAGTCACCTAGTGCAG”, the binding signal is 37700 fluorescence intensity (a.u.). As to “CAAGCTGATTATAGAGGCCATTGTTAGAAAATCCGTCTCTCGGAGTCACCTAGTGCAG”, the binding signal was 4350 fluorescence intensity (a.u.).

As for “TCAATAAATCATAAAACAAATTTATTAAGCCTAATTAATCCGGAGTCACCTAGTGCAG”, the binding signal is 14000 fluorescence intensity (a.u.). The figure for “TTCAAAATCAATTACTCAGTTTCAGTTTCTTTCTACGATTCGGAGTCACCTAGTGCAG” is 11600 fluorescence intensity (a.u.).

As to “AATACATGACTACAGATTTGATTAGATTCCATCTTTACATCGGAGTCACCTAGTGCAG”, the binding signal is 10200 fluorescence intensity (a.u.). “AATATATACATAAACAAATTATTATTATAATTCTGCCTCCCGGAGTCACCTAGTGCAG”: the binding signal was 3580 fluorescence intensity (a.u.). With “CCGAACAAGAGGTGACTGTGATAATCATATTGGTCTCACCCGGAGTCACCTAGTGCAG”, the binding signal was 4680 fluorescence intensity (a.u.). As to “AAGTTAATTTTAGGTATCTTTTCGTAGTTTATTTTCTAGCCGGAGTCACCTAGTGCAG”, the binding signal is 13700 fluorescence intensity (a.u.).

In the case of “CTTATCAATCTGTTTATTAATATTTACGCAGTATTGCAGTCGGAGTCACCTAGTGCAG”, the binding signal was 14500 fluorescence intensity (a.u.).

Regarding “TGTTGGTGCTGTGATTAATTGGTAATCTGCTTTTACAAGCCGGAGTCACCTAGTGCAG”, the binding signal was 19800 fluorescence intensity (a.u.).

In the case of “TCTTCTAATTTGTTTTGCGTGGAGAGCATAGCTTAGGATACGGAGTCACCTAGTGCAG”, the binding signal was 7680 fluorescence intensity (a.u.).

In the case of “TGCGTTATTATGTGATTGTTGATGCTTATTCTACGTTAAGCGGAGTCACCTAGTGCAG”, the binding signal was 12300 fluorescence intensity (a.u.). For “ACTGGACCTTAATTATGATTGTTAGGGACGGATCGGTCGTCGGAGTCACCTAGTGCAG”, the binding signal is 21000 fluorescence intensity (a.u.). “TTGTTGTTTACCGTCACACTTAATTACCAGGTCATTTACACGGAGTCACCTAGTGCAG”: the binding signal was 3380 fluorescence intensity (a.u.).

Regarding “TCCAATTACATCAAAGTGATATAACTGTATTGAGAACACTCGGAGTCACCTAGTGCAG”, the binding signal is 11700 fluorescence intensity (a.u.). For the sequence “GACATCGATTGATAGAGACACCGACGCTGTGATGATGGTGCGGAGTCACCTAGTGCAG”, the binding signal was 31400 fluorescence intensity (a.u.). As to “GTAGATTGCCCAACCCGCACCGCTTAGCCAACGCCCCGCCCGGAGTCACCTAGTGCAG”, the binding signal was 12000 fluorescence intensity (a.u.). Consider “TCAAATTTGATCATTTTGGAATGGAAGGAGTAGTACTTAGCGGAGTCACCTAGTGCAG”, for which the binding signal is 16800 fluorescence intensity (a.u.). For “ATTATTCCGATTGGAAATGATTTTGCCCAAGATTATGGAACGGAGTCACCTAGTGCAG”, the binding signal was 7280 fluorescence intensity (a.u.).

As for “ACCTCCAATAATTGTTCTACTCCAAGCGTTCACAGCTACTCGGAGTCACCTAGTGCAG”, the binding signal is 7090 fluorescence intensity (a.u.). Regarding “AAAATAAACAGATCCGGTTGAAGTTCATCAGTAGTTTAGGCGGAGTCACCTAGTGCAG”, the binding signal is 17700 fluorescence intensity (a.u.). Take “ACTCTTGACAGGAAGCTATCTTGGAATGGTATATATTGCTCGGAGTCACCTAGTGCAG”: the binding signal was 13800 fluorescence intensity (a.u.). As to “ATTTTAAATTTATTATATGATGATTAATTTGGGAATGAGGCGGAGTCACCTAGTGCAG”, the binding signal is 28400 fluorescence intensity (a.u.).

Turning to “GGTTCAGTGATATGATTTAAACTCGACCCTTAGACGAGAGCGGAGTCACCTAGTGCAG”, the binding signal was 9820 fluorescence intensity (a.u.).

On to “GATAATGATATGACCATGGTGATTTCGTCAATCTCAATACCGGAGTCACCTAGTGCAG”, for which the binding signal was 12100 fluorescence intensity (a.u.). As for “TAATAAATTGTTAACAGAAATTATATTTAAATGTTCATTACGGAGTCACCTAGTGCAG”, the binding signal was 24100 fluorescence intensity (a.u.).
